From PubChem BioAssay AID2546 (National Center for Advancing Translational Sciences (NCATS), 2010)
The whole screen tested about 310,000 compounds, of which about 11,000 (3.5%) were called active. Inconclusive results, whose numbers are uncertain, are shown with a selection of clear calls. Calls follow the shape of the dose curve; as a rule, active = well fitted inhibition curve with a large enough effect; inconclusive = small, poorly fitted or top-dose-only effect, or effect the other way; inactive = flat fitted curve, though single readings scatter. No potency is given beside an inconclusive call; the fits are too rough.

Assay: VP16 counterscreen qHTS for inhibitors of ROR gamma transcriptional activity;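 also: Gal4-VP16 expression switched on by copper sulfate through the metallothionein promoter; nearly all actives have a fitted effect of over 50% in size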
Conditions: Drosophila S2 Gal4-VP16 UAS-luciferase, luminescence, 20 h; series mostly up to 53.6 µM
Potency is read from the fitted curve at half-maximal effect; tags tell the direction and shape of the fitted curve.

| SMILES | Potency |
| --- | --- |
| NC1=NC2(CCCCC2)n2c(nc3ccccc32)N1 | inconclusive [inhibitor, full curve, poor fit] |
| O=c1oc2ccccc2cc1-c1cn(-c2ccccc2)c(=S)[nH]1 | active: 1.78 µM |
| Cc1nnc(N2CCC(C(=O)N3CCCCC3)CC2)c2nn(-c3ccc(Cl)cc3)c(C)c12 | inactive |
| COc1ccc(OC)c(NC(=S)NCCSc2ccc(C)cc2)c1 | inconclusive [inhibitor, single point] |
| O=C(O)CCSc1nnc(-c2ccc3c(c2)OCO3)o1 | active: 3.98 µM |
| CC(C)C(NC(=O)/C=C/c1cccc([N+](=O)[O-])c1)C(C)C | inactive |
| CCc1nnc(NC(=O)c2ccc(COc3ccccc3)o2)s1 | inconclusive [activator, single point] |
| COc1ccc(-c2c(-c3ccc(OC)c(C)c3O)n[nH]c2C)cc1 | active: 11.2 µM |
| CCN(CC)C(=O)CSC1=C(C#N)C(c2ccco2)C(C(=O)OCCOC)=C(C)N1 (stereo not given) | inconclusive [inhibitor, single point] |
| NC1=NC(=O)/C(=C/c2cn(Cc3ccccc3)c3ccccc23)S1 | inconclusive [activator, single point] |
| COc1ccc(Oc2nc(C(F)(F)F)nc3ccccc23)cc1 | inconclusive [inhibitor, single point] |
| CSc1nnc(C(C)(C)C)c(=O)n1/N=C/c1c(O)ccc2ccccc12 | inconclusive [inhibitor, single point] |
| Cc1nn(C)c(C(=O)NNC(=S)NC2CCCCC2)c1Cl | inconclusive [inhibitor, single point] |
| COc1ccc(N=C(C)C2=C(O)c3ccccc3C2=O)cc1 | inconclusive [inhibitor, single point] |
| CNc1ccccc1C(C)(C)c1cc(-c2cccc(Br)c2)no1 | active: 15.8 µM |
| O=S(=O)(CCN1CCOCC1)c1ccc(Oc2ccc(S(=O)(=O)CCN3CCOCC3)cc2)cc1 | active: 7.94 µM |
| OC(CN=c1sc2ccccc2n1CC(O)COc1ccccc1)COc1ccccc1 (stereo not given) | inconclusive [inhibitor, single point] |
| O=C(NNC(=O)C1CCN(S(=O)(=O)c2ccc(Cl)cc2)CC1)c1ccc(Cl)cc1 | inconclusive [inhibitor, single point] |
| S=c1[nH]nc(-c2ccco2)n1/N=C/c1cccc(Cl)c1Cl | inconclusive [inhibitor, single point] |
| CCCCC(=O)NNC(=S)NC(=O)CCC | inconclusive [inhibitor, single point] |
| CC(=O)c1cccc(NC(=S)NC(=O)Cc2ccc(Cl)cc2)c1 | inconclusive [inhibitor, single point] |
| Cc1cc(C)n(-c2nc(SCC(=O)O)c3c4c(sc3n2)COC(C)(C)C4)n1 | inconclusive [inhibitor, single point] |
| Cc1cccnc1NC(=S)Nc1ncccc1C | inactive |
| CCn1c(COc2cccc3ccccc23)nnc1SCC(=O)OC1CCCCC1 | inconclusive [inhibitor, single point] |
| O=C(/C=C/c1ccccc1)NC(=S)Nc1ccccc1C(=O)NC1CCCCC1 | inconclusive [inhibitor, single point] |

| SMILES | Potency |
| --- | --- |
| CC(C)(C)NC(=O)C(=O)NNC(=O)c1cccc([N+](=O)[O-])c1 | inactive |
| O=C(C[n+]1ccc(C(=O)N/N=C/c2ccc(O)cc2)cc1)c1ccccc1 | inactive |
| CSCCC1NC2(C(=O)Nc3c(C)cc(Cl)cc32)[C@@H]2C(=O)N(C3CCCC3)C(=O)[C@H]12 (stereo not given in full) | inactive |
| Cc1ccc(NC(=S)NCc2ccccc2)cc1S(=O)(=O)N1CCCCC1 | inconclusive [inhibitor, single point] |
| O=C1N/C(=N\N=C\c2cccs2)SC1Cc1ccc(Cl)cc1 (stereo not given) | active: 0.631 µM |
| c1cncc(Oc2cccc(Oc3cccnc3)c2)c1 | inconclusive [inhibitor, single point] |
| Cc1cc(NC(=O)Cc2cn3ccsc3n2)n(-c2ccccc2)n1 | inactive |
| CC(C)C[C@@H](CSc1ccccc1)N1CCN(CC(C)C)CCC1=O | inactive |
| Cc1ccc(OCC(=O)Nc2ccc(NC(=O)c3cccs3)cc2)c(C)c1 | inconclusive [inhibitor, single point] |
| COc1ccc2c(c1)Cc1sc(NC(=O)c3ccco3)nc1-2 | inconclusive [inhibitor, single point] |
| CCOc1ccc(Nc2cc(C)c3ccccc3n2)cc1 | inactive |
| Cc1ccc(OCCn2cnc3c(N)ncnc32)cc1 | inactive |
| O=C(Nc1ccc(Nc2ccccc2)cc1)c1ccc(Cl)c([N+](=O)[O-])c1 | inconclusive [inhibitor, partial curve, poor fit] |
| O=C(COc1cc(Cl)c(Cl)cc1Cl)Nc1cccc(O)c1 | inconclusive [inhibitor, partial curve] |
| CCC1CCCCN1c1nc(-c2cccc(OC)c2O)nc2ccccc12 (stereo not given) | inactive |
| CCOC(=O)/C(=N/Nc1ccc(Cl)cc1)Sc1nnnn1-c1ccc(C)cc1 | inconclusive [inhibitor, single point] |
| Cc1cccc(OCC(=O)N/N=C/C=C/c2ccco2)c1 | inconclusive [inhibitor, single point] |
| O=C(Nc1ccc(Cl)c(Cl)c1)Nc1ccc(N2CCCC2)c(S(=O)(=O)Nc2ccccc2Cl)c1 | inconclusive [inhibitor, single point] |
| CN1CCN(Cc2cc(=O)oc3cc4c(cc23)CCC4)CC1 | inactive |
| COc1ccc(N/C=C/C(=O)c2ccccc2)cc1 | active: 10 µM |
| Cc1ccc(C(=O)/C=C/C(=O)O)cc1 | active: 7.94 µM |
| COc1ccccc1NS(=O)(=O)c1cccc(N=C2N=C(N)c3ccccc32)c1 | inconclusive [activator, single point] |
| CCOC(=O)c1cccc2c1-c1ccccc1/C2=N/O | inconclusive [inhibitor, single point] |
| O=C(CS(=O)c1ccc(C(F)(F)F)cc1[N+](=O)[O-])Oc1ccc(Cl)cc1 (stereo not given) | inconclusive [inhibitor, single point] |
| NC(=O)CC(NC(=O)c1ccccc1)c1ccc(N2CCCCCC2)c([N+](=O)[O-])c1 (stereo not given) | inconclusive [inhibitor, single point] |

| SMILES | Potency |
| --- | --- |
| O=C(Cc1ccc(Cl)c(Cl)c1)Nc1cccc(S(=O)(=O)N2CCOCC2)c1 | inactive |
| COc1ccc(C(=O)Nc2ccccc2C(=O)NC(Cc2ccc(O)cc2)C(=O)NNC(=O)c2ccccc2)cc1 (stereo not given) | inactive |
| Cc1ccc2nc(C)cc(C(=O)Nc3nccs3)c2c1 | inactive |
| Nc1nc(-c2ccccn2)nc(N)c1Cc1c(F)cccc1Cl | active: 11.2 µM |
| Cc1cc2c(cc1S(=O)(=O)C(C)CC(=O)NCc1ccco1)OCC(=O)N2 (stereo not given) | inactive |
| COc1ccccc1N1C(=O)C=C(Sc2nc(C)cc(C)n2)C1=O | inconclusive [inhibitor, single point] |
| O=C(Nc1ccccc1)Nc1snnc1C(=O)Nc1cccc(O)c1 | inconclusive [inhibitor, partial curve, poor fit] |
| CC(=O)c1nn(-c2cccc(Br)c2)cc1C(=O)c1ccccc1 | inconclusive [inhibitor, single point] |
| Cc1cc(C(F)F)n2nc(C(=O)Nc3cccc(S(=O)(=O)N4CCOCC4)c3)nc2n1 | inactive |
| Clc1nc(CN2CCCCC2)nc2sc3c(c12)CCCC3 | inactive |
| CC(C)C(=O)NC(=S)Nc1ccccc1N1CCN(C(=O)c2ccccc2)CC1 | inactive |
| O=C(CSc1nnc(-c2ccncc2)n1Cc1ccco1)OC1CCCCC1 | inconclusive [inhibitor, single point] |
| O=C(CCN1C(=O)/C(=C/c2ccccc2Cl)SC1=S)Nc1cccnc1 | inconclusive [inhibitor, single point] |
| Cc1ccsc1C(=O)NCCc1c[nH]c2ccccc12 | inconclusive [activator, full curve, poor fit] |
| NCCN1C(=O)S/C(=C\c2ccc3c(c2)OCO3)C1=O | inconclusive [inhibitor, partial curve, poor fit] |
| FC(F)(F)c1ccc2c(c1)[nH]c(=S)n2C1CC1 | inconclusive [inhibitor, single point] |
| O=C(O)c1ccc(-c2ccc(-c3ccccc3)cc2)s1 | inconclusive [inhibitor, full curve] |
| CCc1cccc(NC(=S)Nc2cccc3ccccc23)c1 | active: 7.94 µM |
| O=C(c1ccncc1)N1CCC2(CC1)CCN(c1ccccn1)CC2 | inactive |
| COC(=O)c1c(-c2ccc(Br)cc2)csc1NC(=O)Cc1ccc(OC)c(OC)c1 | inconclusive [inhibitor, single point] |
| CCCSc1nc2sc3c(c2c(=O)[nH]1)CC(C)(CC)OC3 (stereo not given) | inactive |
| O=C(NCc1cccnc1)c1ccc(COc2ccccc2Br)o1 | inconclusive [inhibitor, single point] |
| CC(=O)N1c2ccc(S(=O)(=O)N(C)CC(=O)Nc3cccc(C)c3)cc2CC1C (stereo not given) | inconclusive [inhibitor, partial curve] |
| CC(=O)C(=O)O | inactive |
| CCN(C(=O)c1ccc(C(C)(C)C)cc1)c1nnc(Cn2nnc3ccccc32)s1 | active: 5.62 µM |
